Measured values as given in US20250376539A1 (KIRA PHARMACEUTICALS SUZHOU, published 2025).

Key:
[1] = biological target: T1, recombinant cyno C2a, C-terminal 6His-tag, made in house (CHO cell expression) (cynomolgus monkey, UniProt P06681 244-752 (human entry)); assay: binding kinetics (BLI presumed)
T1 chain: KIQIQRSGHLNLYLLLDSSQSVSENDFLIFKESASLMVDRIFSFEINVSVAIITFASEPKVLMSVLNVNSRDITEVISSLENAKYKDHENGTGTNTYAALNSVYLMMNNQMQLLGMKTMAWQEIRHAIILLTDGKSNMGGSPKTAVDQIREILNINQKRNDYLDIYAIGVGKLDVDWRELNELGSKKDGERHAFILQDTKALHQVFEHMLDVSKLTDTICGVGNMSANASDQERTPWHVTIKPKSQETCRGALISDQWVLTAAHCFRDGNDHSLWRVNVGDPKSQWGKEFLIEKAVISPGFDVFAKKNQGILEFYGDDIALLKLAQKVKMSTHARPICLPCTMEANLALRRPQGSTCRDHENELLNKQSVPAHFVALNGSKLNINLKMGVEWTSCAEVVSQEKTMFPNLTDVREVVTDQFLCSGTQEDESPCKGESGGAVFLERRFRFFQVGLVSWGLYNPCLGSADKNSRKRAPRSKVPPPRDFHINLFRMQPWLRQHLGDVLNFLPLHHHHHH

[2] = biological target: T2, recombinant cynomolgus (cyno) complement C2 (XP_005553508.1), C-terminal 6His-tag, made in house (CHO cell … (cynomolgus monkey (Macaca fascicularis), UniProt P06681 21-752 (human entry))); assay: BLI (Gator), antibody on probe; 600 s association at pH 7.4, 600 s dissociation at pH 7.4
T2 construct: also called cyno C2; Cyno C2
T2 chain: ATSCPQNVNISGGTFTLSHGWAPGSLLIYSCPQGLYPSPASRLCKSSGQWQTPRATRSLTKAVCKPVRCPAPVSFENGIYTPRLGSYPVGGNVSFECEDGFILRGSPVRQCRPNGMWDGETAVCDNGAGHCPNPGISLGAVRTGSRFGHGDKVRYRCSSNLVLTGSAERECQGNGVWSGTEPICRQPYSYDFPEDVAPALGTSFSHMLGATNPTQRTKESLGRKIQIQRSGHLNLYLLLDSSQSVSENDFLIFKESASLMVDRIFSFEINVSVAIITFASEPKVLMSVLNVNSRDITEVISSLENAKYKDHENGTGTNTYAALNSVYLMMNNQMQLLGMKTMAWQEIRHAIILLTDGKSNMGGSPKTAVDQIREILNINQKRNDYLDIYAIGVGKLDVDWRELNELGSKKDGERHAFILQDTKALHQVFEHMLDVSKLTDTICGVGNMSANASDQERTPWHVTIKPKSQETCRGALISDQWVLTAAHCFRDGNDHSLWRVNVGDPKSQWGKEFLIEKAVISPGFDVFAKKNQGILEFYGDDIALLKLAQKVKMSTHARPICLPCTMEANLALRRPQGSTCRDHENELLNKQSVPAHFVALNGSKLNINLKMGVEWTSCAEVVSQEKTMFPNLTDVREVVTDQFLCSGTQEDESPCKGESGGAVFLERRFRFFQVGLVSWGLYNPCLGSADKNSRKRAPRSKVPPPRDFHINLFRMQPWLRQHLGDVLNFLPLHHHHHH
Method: (§1) The histidine mutant constructs in Table 4 were tested for their pH-dependent dissociation from human C2. Probe-immobilized anti-C2 antibodies were incubated with C2 at pH 7.4 for 600s, followed by a 600s dissociation period in K Buffer at pH 7.4 or pH 5.8. The data were processed and analyzed by the Gator evaluation software.
(§2) Non-fusion mAb were used for comparison.

[3] = biological target: T3, recombinant human complement C2 (NP_000054.2), C-terminal 6His-tag, made in house (CHO cell expression) (human, UniProt P06681 21-752); assay: as above
T3 construct: a linker before the tag is not described; also called human C2; Human C2
T3 sequence: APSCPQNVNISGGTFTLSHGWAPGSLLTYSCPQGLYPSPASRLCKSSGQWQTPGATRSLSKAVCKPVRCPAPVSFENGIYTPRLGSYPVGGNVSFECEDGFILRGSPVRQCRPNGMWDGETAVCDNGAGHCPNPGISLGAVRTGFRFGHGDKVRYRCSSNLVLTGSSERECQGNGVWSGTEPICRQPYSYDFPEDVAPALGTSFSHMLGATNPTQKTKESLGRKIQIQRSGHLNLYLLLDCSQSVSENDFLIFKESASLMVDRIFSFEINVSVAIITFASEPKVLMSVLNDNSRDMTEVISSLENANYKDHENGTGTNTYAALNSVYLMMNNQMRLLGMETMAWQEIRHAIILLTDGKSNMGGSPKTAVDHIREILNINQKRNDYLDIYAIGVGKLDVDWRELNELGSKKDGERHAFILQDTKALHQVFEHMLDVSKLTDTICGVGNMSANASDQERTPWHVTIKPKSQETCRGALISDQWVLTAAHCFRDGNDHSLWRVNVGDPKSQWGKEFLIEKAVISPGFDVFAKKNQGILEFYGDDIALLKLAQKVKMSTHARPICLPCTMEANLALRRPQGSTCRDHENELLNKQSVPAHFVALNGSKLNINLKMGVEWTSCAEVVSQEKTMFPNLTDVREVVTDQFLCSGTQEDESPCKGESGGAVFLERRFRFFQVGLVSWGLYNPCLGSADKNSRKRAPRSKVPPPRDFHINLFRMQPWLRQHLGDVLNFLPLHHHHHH
Method: as §1, §2

[4] = biological target: T2, recombinant cynomolgus (cyno) …; assay: binding kinetics (BLI presumed)
[5] = biological target: T3, recombinant human complement C2 …; assay: binding kinetics, neutral pH (BLI presumed)

B1: 69.44FH (Factor H 1-5 fusion with 69.44; FH1-5 fused to the heavy chain C-terminus) (other)
heavy: QVQLVQSGAEVKKPGASVKVSCKASGYSFTTYYMYWVRQAPGQGLEWMGIITPSGGSTTYAQKFQDRVTMTRDASTTTVYMELSSLRSEDTAVYYCARGYEGSYGFDHWGQGTLVTVSSASTKGPSVFPLAPCSRSTSESTAALGCLVKDYFPEPVTVSWNSGALTSGVHTFPAVLQSSGLYSLSSVVTVPSSSLGTKTYTCNVDHKPSNTKVDKRVESKYGPP[human IgG4 Fc with S228P M428L N434A (EU numbers) not shown]EDCNELPPRRNTEILTGSWSDQTYPEGTQAIYKCRPGYRSLGNIIMVCRKGEWVALNPLRKCQKRPCGHPGDTPFGTFTLTGGNVFEYGVKAVYTCNEGYQLLGEINYRECDTDGWTNDIPICEVVKCLPVTAPENGKIVSSAMEPDREYHFGQAVRFVCNSGYKIEGDEEMHCSDDGFWSKEKPKCVEISCKSPDVINGSPISQKIIYKENERFQYKCNMGYEYSERGDAVCTESGWRPLPSCEEKSCDNPYIPNGDYSPLRIKHRTGDEITYQCRNGFYPATRGNTAKCTSTGWIPAPRCTLKP
light: SYELTQPPSVSLSPGQTASITCSGDKLGNKYTCWYQQKPGQSPVLVIYQDNKRPSGIPERFSGSNSGNTATLTISGTQAMDEADYYCQTWDSSTAVFGGGTKLTVLGQPKAAPSVTLFPPSSEELQANKATLVCLISDFYPGAVTVAWKADSSPVKAGVETTTPSKQSNNKYAASSYLSLTPEQWKSHRSYSCQVTHEGSTVEKTVAPTECS
notes: Antibody-factor H fusion protein
[1]
  Kd: 0.346 nM
  koff: 7.3e-05 s⁻¹
  kon: 211000 M⁻¹ s⁻¹
[2]
  Dissociation (%) pH 7.4: 1.4%
[3]
  Dissociation (%) pH 7.4: 1.71%
[4]
  Kd: 0.192 nM
  koff: 3.86e-05 s⁻¹
  kon: 200000 M⁻¹ s⁻¹
[5]
  Kd: 0.00602 nM
  koff: 1.17e-06 s⁻¹
  kon: 195000 M⁻¹ s⁻¹
